Reference: PubChem BioAssay (Tox21)
The inconclusive results got no clear call from the source; some entries with a clear call stand among them for comparison. For part of these data: No potency is given beside an inconclusive call; the fits are too rough. The source made the active and inactive calls. Unless noted, the call rests on the fitted dose curve.

What was measured:
[1] = qHTS assay to identify small molecule antagonists of the peroxisome proliferator-activated receptor delta (PPARd) signaling pathway - cell viability counter screen (AID 743213; active means well fitted curve in the direction sought with a large enough effect in the repeat runs; inconclusive means weak or mixed curves; inactive means no such curve, though single readings can be large; an effect the other way counts as inactive or inconclusive; further: nearly all actives have a fitted effect of over 50% in size; further: potency means the concentration at half of the fitted maximal effect; on viability change, negative = cytotoxic: on the % scale 0 is the no-effect control and ±100 the full control effect); conditions: PPARd-bla HEK293H viability, CellTiter-Glo luminescence, 17 h; viability change, negative = cytotoxic: at 62 µM (top of the series) unless noted
How it was run: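 Viability counter-screen, qHTS format: PPARd-bla HEK293H, L165041 300 nM final, 17 h compound exposure at 37 C, CellTiter-Glo luminescence after 30 min RT.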

[2] = qHTS assay to identify small molecule agonists of the endoplasmic reticulum stress response signaling pathway - cell viability counter screen (AID 1159517); further: nearly all actives have a fitted effect of over 50% in size; further: potency means the concentration at half of the fitted maximal effect;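 on activity change, negative = cytotoxicity: HeLa cells carrying an ER stress response element beta-lactamase reporter; on the % scale 0 is the no-effect control and ±100 the full control effect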
How it was run: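 ESRE-bla HeLa cells (1,500/well) were plated overnight at 37 C and exposed to compounds for 5 hr. After the 2 hr beta-lactamase substrate read, CellTiter-Glo went into the same wells, and luminescence was read after 30 min at room temperature.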

[3] = molecular target: Peroxisome proliferator-activated receptor delta (Homo sapiens) (UniProt Q03181); assay: qHTS assay to identify small molecule agonists of the peroxisome proliferator-activated receptor delta (PPARd) signaling pathway (AID 743212); conditions: HEK293H PPARd-UAS-bla, beta-lactamase FRET ratio, 17 h;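 further: HEK293H cells with PPARd UAS beta-lactamase reporter GeneBLAzer system; on the % scale 0 is the no-effect control and ±100 the full control effect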
Chain of UniProt Q03181 (Q03181 whole entry, looked up): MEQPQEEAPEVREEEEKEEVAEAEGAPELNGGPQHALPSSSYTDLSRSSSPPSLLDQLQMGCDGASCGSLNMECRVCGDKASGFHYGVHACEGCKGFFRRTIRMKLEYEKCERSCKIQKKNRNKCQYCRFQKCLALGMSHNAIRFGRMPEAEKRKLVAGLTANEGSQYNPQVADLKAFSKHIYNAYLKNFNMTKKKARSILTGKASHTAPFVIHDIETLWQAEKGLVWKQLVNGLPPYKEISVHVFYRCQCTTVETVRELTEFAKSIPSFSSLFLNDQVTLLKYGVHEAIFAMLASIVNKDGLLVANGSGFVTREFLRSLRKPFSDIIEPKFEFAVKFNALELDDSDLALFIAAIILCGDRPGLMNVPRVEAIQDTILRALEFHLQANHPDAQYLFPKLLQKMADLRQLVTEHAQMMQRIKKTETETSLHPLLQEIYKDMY
How it was run: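 Beta-lactamase reporter readout: a ratiometric FRET signal from the LiveBLAzer substrate after 2 h at room temperature. Compound exposure at 37 °C in PPARδ-bla HEK293H cells driven by an upstream activator sequence.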

[4] = molecular target: Peroxisome proliferator-activated receptor delta (Homo sapiens) (UniProt Q03181); assay: qHTS assay to identify small molecule antagonists of the peroxisome proliferator-activated receptor delta (PPARd) signaling pathway (AID 743215; active means well fitted inhibition curve with a large enough effect in the signal ratio in the repeat runs, not every such curve was filed as active; inconclusive means weak or mixed curves, or effect the other way; inactive means no such curve, though single readings can be large or run the other way; the % refers to the signal ratio;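 further: cells stimulated with agonist L165041 at 300 nM final during compound exposure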; further: potency means the concentration at half of the fitted maximal effect); conditions: HEK293H PPARd-UAS-bla, beta-lactamase FRET ratio, antagonist, 17 h; ratio activity, negative = inhibition: at 62 µM (top of the series) unless noted
How it was run: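 Here, a reporter line (HEK293H, beta-lactamase under a UAS) measures PPARd signaling. Compounds are tested against agonist L165041 at 300 nM final concentration over 17 h at 37 C, with fluorescence read after substrate.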

[5] = molecular target: Vitamin D3 receptor (Homo sapiens) (UniProt P11473); assay: qHTS assay to identify small molecule antagonists of the vitamin D receptor (VDR) signaling pathway (AID 743223; active means well fitted inhibition curve with a large enough effect in the signal ratio in the repeat runs, not every such curve was filed as active; inconclusive means weak or mixed curves, or effect the other way; inactive means no such curve, though single readings can be large or run the other way; the % refers to the signal ratio; further: on the % scale 0 is the no-effect control and ±100 the full control effect); conditions: VDR-UAS-bla HEK293T, beta-lactamase FRET ratio, 16 h; activity change, negative = inhibition: at 61 µM (top of the series) unless noted
Chain of UniProt P11473 (P11473 whole entry, looked up): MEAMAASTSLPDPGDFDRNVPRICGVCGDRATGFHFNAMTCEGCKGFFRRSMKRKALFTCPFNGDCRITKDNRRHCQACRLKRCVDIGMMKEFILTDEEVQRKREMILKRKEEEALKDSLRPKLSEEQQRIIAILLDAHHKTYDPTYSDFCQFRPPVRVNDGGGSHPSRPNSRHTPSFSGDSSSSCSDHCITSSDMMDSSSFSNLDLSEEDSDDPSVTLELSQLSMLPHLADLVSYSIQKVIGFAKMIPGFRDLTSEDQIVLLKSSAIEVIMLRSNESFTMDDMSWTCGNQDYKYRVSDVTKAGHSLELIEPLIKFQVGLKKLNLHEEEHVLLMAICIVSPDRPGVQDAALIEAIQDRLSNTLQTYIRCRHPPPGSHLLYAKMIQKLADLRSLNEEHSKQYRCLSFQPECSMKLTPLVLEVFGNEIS
How it was run: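 Beta-lactamase activity in VDR-bla cells is measured by FRET substrate fluorescence (2 h, room temperature) after cells spend 16 h at 37C with test compound and 3 nM final 1alpha,25-dihydroxyvitamin D3.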

[6] = molecular target: Bile acid receptor (Homo sapiens) (UniProt Q96RI1); assay: qHTS assay to identify small molecule agonists of the farnesoid-X-receptor (FXR) signaling pathway (AID 743220; active means well fitted activation curve with a large enough effect in the signal ratio in the repeat runs, not every such curve was filed as active; inconclusive means weak or mixed curves, or effect the other way; the % refers to the signal ratio; further: potency means the concentration at half of the fitted maximal effect); conditions: HEK293T FXR-UAS-bla, beta-lactamase FRET ratio, 16 h; activation: at 62.6 µM (top of the series) unless noted
Chain of UniProt Q96RI1 (Q96RI1 whole entry, looked up): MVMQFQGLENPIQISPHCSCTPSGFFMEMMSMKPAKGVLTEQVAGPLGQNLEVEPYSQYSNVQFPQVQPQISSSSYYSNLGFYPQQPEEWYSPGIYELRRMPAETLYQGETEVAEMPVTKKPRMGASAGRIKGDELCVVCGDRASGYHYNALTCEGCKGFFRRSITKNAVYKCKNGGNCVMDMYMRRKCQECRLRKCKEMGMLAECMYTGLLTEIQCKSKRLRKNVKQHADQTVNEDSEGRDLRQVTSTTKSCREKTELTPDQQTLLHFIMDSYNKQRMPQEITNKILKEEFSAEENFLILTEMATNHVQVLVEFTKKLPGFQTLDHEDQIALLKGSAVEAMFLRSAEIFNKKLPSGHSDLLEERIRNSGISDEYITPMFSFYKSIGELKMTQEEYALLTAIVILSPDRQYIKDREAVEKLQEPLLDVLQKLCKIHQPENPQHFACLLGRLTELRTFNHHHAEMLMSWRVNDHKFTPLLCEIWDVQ
How it was run: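 FXR-UAS-bla HEK 293T cells carrying a UAS-driven beta-lactamase reporter were plated for 5 h at 37C/5% CO2, then exposed to DMSO-dissolved Tox21 10K compounds for 16 h at 37C. A LiveBLAzer B/G FRET substrate was loaded for 2 h at room temperature before fluorescence reading.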

[7] = molecular target: Vitamin D3 receptor (Homo sapiens) (UniProt P11473); assay: qHTS assay to identify small molecule agonists of the vitamin D receptor (VDR) signaling pathway (AID 743222); conditions: HEK293T VDR-UAS-bla, beta-lactamase FRET ratio, 16 h; activation: at 63.5 µM (top of the series) unless noted; further: potency means the concentration at half of the fitted maximal effect
How it was run: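 Tox21 cell reporter format: VDR-bla line, 16 h compound exposure in 5% CO2 at 37C, then fluorescence intensity after 2 h with LiveBLAzer B/G FRET substrate.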

[8] = qHTS assay to identify small molecule agonists of the vitamin D receptor (VDR) signaling pathway - cell viability counter screen (AID 743224; active means well fitted curve in the direction sought with a large enough effect in the repeat runs; inconclusive means weak or mixed curves; inactive means no such curve, though single readings can be large; an effect the other way counts as inactive or inconclusive; further: potency means the concentration at half of the fitted maximal effect; nearly all actives have a fitted effect of over 50% in size); conditions: VDR-bla HEK293T viability, CellTiter-Glo luminescence, 16 h; activity change, negative = cytotoxicity: at 62.6 µM (top of the series)
How it was run: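 CellTiter-Glo viability readout on VDR-bla cells, measured after 16 h of compound treatment at 37C in the same wells.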

[9] = qHTS assay to identify small molecule antagonists of the retinoid acid receptor (RAR) signaling pathway - cell viability counter screen (AID 1159551; active means well fitted curve in the direction sought with a large enough effect in the repeat runs; inconclusive means weak or mixed curves; inactive means no such curve, though single readings can be large; an effect the other way counts as inactive or inconclusive; further: nearly all actives have a fitted effect of over 35% in size; further: potency means the concentration at half of the fitted maximal effect)
How it was run: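 In this counter screen, the RARE-luciferase line C3RL4 was exposed for 6 h at 37 C and 5% CO2 to compounds with retinol at 1 uM final. Cellular ATP, read by luminescence, served as the viability measure.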

[10] = molecular target: Bile acid receptor (Homo sapiens) (UniProt Q96RI1); assay: qHTS assay to identify small molecule antagonists of the farnesoid-X-receptor (FXR) signaling pathway (AID 743217; active means well fitted inhibition curve with a large enough effect in the signal ratio in the repeat runs, not every such curve was filed as active; inconclusive means weak or mixed curves, or effect the other way; inactive means no such curve, though single readings can be large or run the other way; the % refers to the signal ratio; further: potency means the concentration at half of the fitted maximal effect); conditions: HEK293T FXR-UAS-bla, beta-lactamase ratio, CDCA-stimulated, 16 h; activity change, negative = inhibition: at 62.6 µM (top of the series) unless noted
How it was run: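 Test compounds are pin-transferred onto FXR-bla HEK 293T cells, then chenodeoxycholic acid is added at 50 uM final. After 16 h at 37 °C, LiveBLAzer B/G substrate is applied for 2 h at room temperature and fluorescence read.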

[11] = qHTS assay to identify small molecule agonists of the farnesoid-X-receptor (FXR) signaling pathway - cell viability counter screen (AID 743218; active means well fitted curve in the direction sought with a large enough effect in the repeat runs; inconclusive means weak or mixed curves; inactive means no such curve, though single readings can be large; an effect the other way counts as inactive or inconclusive; further: potency means the concentration at half of the fitted maximal effect; nearly all actives have a fitted effect of over 45% in size); conditions: FXR-bla HEK293T viability, CellTiter-Glo luminescence, 16 h; viability change, negative = cytotoxic: at 62.6 µM (top of the series) unless noted
How it was run: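 Quantitative HTS counter screen measuring ATP-based viability via CellTiter-Glo luminescence in HEK 293T cells carrying a UAS-driven beta-lactamase reporter, after 16 h compound exposure at 37 C.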

[12] = qHTS assay to identify small molecule antagonists of the farnesoid-X-receptor (FXR) signaling pathway - cell viability counter screen (AID 743221; active means well fitted cell-killing curve with a large enough effect in the repeat runs, not every such curve was filed as active; inconclusive means weak or mixed curves, or effect the other way; inactive means no such curve, though single readings can be large or run the other way; further: potency means the concentration at half of the fitted maximal effect; nearly all actives have a fitted effect of over 50% in size); conditions: FXR-bla HEK293T viability, CellTiter-Glo luminescence, 16 h; activity change, negative = cytotoxicity: at 62.6 µM (top of the series)
How it was run: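 Compound effects on cell number were measured as CellTiter-Glo luminescence in HEK 293T cells expressing FXR-UAS-bla, after 16 h at 37 C with 50 uM CDCA (final).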

[13] = activation: at 62.6 µM (top of the series) unless noted
Tags describe the fitted curve by direction and shape or compound fluorescence and quenching.

With OCCCCCO the Potency [1] was “inactive” and the Potency [2] was “inactive”.

In the case of CCCCCCCC/C=C\CCCCCCCC(=O)O, the activation [3, 13] is reported as inconclusive: 12.3%, the activation ([3]; at 81.1 µM (top of the series)) is reported as inactive: 0.707% and the Potency [2] is reported as inconclusive [cytotoxic, partial curve, poor fit].

With Nc1c(Cl)cc(Cl)cc1[N+](=O)[O-] the Potency [3, 13] was “inactive”, the Potency [4] was inconclusive [fluorescent, partial curve, poor fit] and the activity change, negative = inhibition [5] was inconclusive: 6.25%. For the same compound, the Potency [2] was inconclusive [cytotoxic, full curve, poor fit].

For C=CCCCCCCCCCCCCCCCC, the activation [3, 13] was inactive: -3.43% [at 5.95 µM], the activation [6] was inactive: -1.74% [at 5.95 µM] and the activity change, negative = inhibition [5] was inactive: 7.35% [at 6.95 µM]. For the same compound, the Potency [2] was inconclusive [cytotoxic, single point].

In the case of COc1nc(C)nc(N)n1, the Potency [1] is reported as “inactive”, the Potency [4] is reported as “inactive” and the Potency [7] is reported as “inactive”. The Potency [2] was “inactive”.

With Cc1cccc(C)c1NC(=O)c1ccc(N)cc1 the Potency [1] was “inactive”, the ratio activity, negative = inhibition [4] was inconclusive: -4.33% and the Potency [7] was “inactive”. The Potency [8] was inconclusive [cytotoxic, single point] and the Potency [2] was inconclusive [cytotoxic, full curve, poor fit].

In the case of NC(=O)/N=N/C(N)=O, the Potency [1] is reported as “inactive”, the activity change, negative = inhibition [5] is reported as inconclusive: -1.9% and the Potency [2] is reported as inconclusive [cytotoxic, single point]. For the same compound, the Potency [9] was inconclusive [cytotoxic, partial curve, poor fit].

For O=c1[nH]c(=O)n([C@H]2C[C@H](O)[C@@H](CO)O2)cc1F, the Potency [3, 13] was “inactive”, the Potency [1] was inconclusive [cytotoxic, full curve, poor fit] and the Potency [10] was inconclusive [inhibitor, full curve]. The Potency [11] was active: 13300 nM, the Potency [6] was inconclusive [rising, partial curve] and the Potency [12] was active: 11900 nM. For the same compound, the Potency [2] was inconclusive [cytotoxic, single point].

With CC[N+](CC)(CC)CCOC(=O)C(C1CCCC1)C1CCCC1 the Potency [2] was inconclusive [rising, full curve, poor fit] and the Potency [9] was “inactive”.

For C=CCCCCCCCCC=O, the activation [3, 13] was inconclusive: 7.22%, the Potency [4] was “inactive” and the Potency [7] was inconclusive [activator, single point]. For the same compound, the Potency [2] was “inactive”.
